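How tested: cells in 96-well plates exposed to compound for 48 hours at five concentrations. GI50 is the concentration that inhibits growth by half.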 Active and inactive are the calls of the source. No stated cut-off is given here; in the data, active = GI50 up to about 1.1 µM and inactive = higher.
These molecules were tested on NCI-H322M (assay: DTP human tumour cell line panel, 48 h).
For O=C1CC(/C=C/c2ccco2)=C(O)C1=O, the GI50 was inactive: 12.3 µM.
With CN1C[C@@H]2CCCN2P1Oc1cccc2cccnc12 (stereo partly specified) the GI50 was inactive: > 100 µM.
With COc1ccc(C(=O)C(c2ccc(OC)cc2)C2(O)C(=O)Nc3ccc([N+](=O)[O-])cc32)cc1 (stereo unspecified) the GI50 was inactive: > 100 µM.
In the case of NC(=S)NNCC(=O)CC(O)(C(F)(F)F)C(F)(F)Cl (stereo unspecified), the GI50 is reported as inactive: > 100 µM.
With O=[N+]([O-])c1ccc(N/N=C(\c2ccccc2)c2ccccn2)nc1 the GI50 was inactive: 2.94 µM.
In the case of COc1ccc2c(ccc3c(C(=O)NCCCN(C)CCCNC(=O)c4cn(C)c5c4ccc4cc(OC)ccc45)cn(C)c32)c1, the GI50 is reported as inactive: 3.03 µM.
In the case of COC(=O)c1cccc2cccc(C(=O)Nc3ccc(Cl)cc3)c12, the GI50 is reported as inactive: > 100 µM.
In the case of OC12c3ccccc3C3CCC4(OCCO4)C3C1c1ccccc12 (stereo unspecified), the GI50 is reported as inactive: > 100 µM.
In the case of COc1cc2c(cc1OC)C(CCN)=NCC2, the GI50 is reported as inactive: > 63.2 µM.
Oc1ccc(/C=C/c2ccc3cccc(O)c3n2)cc1O was tested, and the GI50 was inactive: 7.01 µM.
With S=c1[nH]n2c(CCCCCCCCc3nnc4sc(=S)[nH]n34)nnc2s1 the GI50 was inactive: > 100 µM.
O=c1[nH]nc(-c2ccccc2)n1/N=C/c1c(O)ccc2ccccc12 was tested, and the GI50 was inactive: 40 µM.
In the case of Cc1nc(-c2cc3cc(Cl)ccc3oc2=O)cc2c1c(=O)oc1ccc(Cl)cc12, the GI50 is reported as inactive: > 100 µM.
N#CC1(C#N)C(c2ccccc2)NC23CCCCC2C1(C#N)C(=O)N3 (stereo unspecified) was tested, and the GI50 was inactive: > 100 µM.
With Fc1ccc(/C(=N/Cc2ccccc2)N2CCOCC2)cc1 the GI50 was inactive: > 100 µM.
Oc1cc(Br)cc2cc(Cl)cnc12 was tested, and the GI50 was inactive: 10.4 µM.
For COc1ccc(C2=NN(C(=O)c3ccccc3)C(O)(c3cc(F)c(Cl)cc3Cl)C2)cc1OC (stereo unspecified), the GI50 was inactive: 23.6 µM.
O=c1c2ccc(Br)cc2nc(-c2ccccc2)n1NC1OC(CO)C(O)C(O)C1O (stereo unspecified) was tested, and the GI50 was inactive: > 100 µM.
With O=C(CCC1CCCCC1)NCc1ccc(C(=O)O)cc1 the GI50 was inactive: > 100 µM.
For CN(C)c1ccc(/C=C/C(=O)CC(=O)/C=C/c2ccc(N(C)C)cc2)cc1, the GI50 was inactive: > 100 µM.
For Cc1cc(C)c(-n2[nH]c(=O)n(C)c2=O)c(C)c1, the GI50 was inactive: > 100 µM.
With CCOC(=O)[C@H](Cc1ccc(O)cc1)/N=C1/[C@H]2CCC[C@]1(O)[C@@](C)([N+](=O)[O-])C2 the GI50 was inactive: > 100 µM.
With C=C1C(=O)O[C@@H]2[C@H]1C[C@H](I)[C@@]1(C)CC[C@H](O1)[C@](C)(I)CCCC(C)[C@@H]2O (stereo partly specified) the GI50 was inactive: 15.9 µM.
In the case of Cc1cc(-c2nc3cc(F)ccc3s2)ccc1N, the GI50 is reported as inactive: 12.2 µM.
In the case of NS(=O)(=O)c1cc(S(N)(=O)=O)c(NC(=O)Nc2ccc(Cl)c(Cl)c2)c(Cl)c1Cl, the GI50 is reported as inactive: > 100 µM.
In the case of CCOC(=O)C1=C(C)N(c2ccccc2)C2=C(C(=O)N(c3ccccc3)C2c2ccccc2)C1c1ccccc1 (stereo unspecified), the GI50 is reported as inactive: > 100 µM.
In the case of CC[C@@]1(O)C(=O)OCc2c1cc1n(c2=O)Cc2c-1nc1ccccc1c2/C=N\NC(=O)C(N)Cc1c[nH]cn1 (stereo partly specified), the GI50 is reported as inactive: 2.29 µM.
With COc1cc2c(c(OC)c1OC)-c1ccc(OC)c(=O)cc1[C@@H](NC(=O)c1ccccc1)CC2 the GI50 was active: 0.0176 µM.
For COc1ccc(Oc2ccccc2N)cc1, the GI50 was inactive: 59.6 µM.
COc1cc(/C=C2\C[C@H]3[C@@H]4CCc5cc(O)ccc5[C@H]4CC[C@]3(C)C2=O)cc(OC)c1OC was tested, and the GI50 was inactive: 6.18 µM.
In the case of O=C(Nc1ccccc1)N(CCCCN(Cc1ccccc1)C(=O)Nc1ccccc1)Cc1ccccc1, the GI50 is reported as inactive: > 100 µM.
CCCCSc1n/c(=C\c2ccc(N(C)C)cc2)c2nnnn12 was tested, and the GI50 was inactive: > 100 µM.
With O=[N+]([O-])c1ccc(N/N=C/CC(O)(C(F)(F)F)C(F)(F)F)c([N+](=O)[O-])c1 the GI50 was inactive: 5.3 µM.
In the case of CCOP(C)(=O)C(N)Cc1ccc(OC)c(OC)c1 (stereo unspecified), the GI50 is reported as inactive: > 100 µM.
In the case of C[C@@H]1CC[C@@]2(C)OC(c3ccccc3)[C@H](CO)N2C1=O (stereo partly specified), the GI50 is reported as inactive: > 100 µM.
In the case of CCCC1C[C@H]2CCCCN2[C@H]2CCCN12 (stereo partly specified), the GI50 is reported as inactive: > 100 µM.
